# ± gives the standard deviation of the averaged measurements. The list shows a part of the results.
# Test system: PfAP2-G AP2 domain (GST-tagged)
# Assay: gcPBM binding intensity (ln(normalized median fluorescence intensity)); higher = stronger DNA binding
# Summary of the method: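 GST-fused DNA-binding domains of P. falciparum, expressed in E. coli, were applied at about 25 μg on average for 1 h to an Agilent 4 × 180k array of primer-extended double-stranded 36-bp intergenic genomic probes and negative controls. Binding intensity is the highest Masliner-normalised natural-log median intensity across replicate spots of either probe orientation, measured with Alexa488 anti-GST antibody and a 488 nm scan.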
row,Sequence,gcPBM binding intensity (ln)
1,TTTTGGATTGAGGACCTTTTTATAGAATTATGTTTT [TGCATGCA_negctrl_site544],10.4 ± 0.18
2,ATATATAATTTTTACACACGCAATAAATATATATAT [CACACA_site4283],9.95
3,TTTATTTTCCAAAGGGTGCACATAGTTGAAACGATA,10.7 ± 0.72
4,AATAAAGCAATAAATACACACATATTTATATTTATA [CACACA_site7390],9.84 ± 0.13
5,GTTTCCTTAATATTCACACACATATATATAATATAT [CACACA_site1856],10.13 ± 0.071
6,ATGTTATAAGATTTATGTACACACATATACACACCT [XGTACX_site1316],11.4 ± 0.79
7,TTAACATAAATATATACACACCAATGATGGCATTTA [CACACA_site4952],9.805 ± 0.007
8,TATATATAATATATATGTACGTATATATATAATATA [XGTACX_site8383],11.4 ± 0.87
9,AATATACAAAAAAAAAAAAAAAAAAAAAAGATGGAA [TGCATGCA_negctrl_site550],9.665 ± 0.064
10,CGAACACAAACACAAACACACATCATATATATATAT [CACACA_site4857],10.1 ± 0.28
11,ATTTTGGAAATAATATGTACATATACATAATATATA [XGTACX_site4177],11.3 ± 0.76
12,GCAAATCTTATATGAAGTACATATCTTATAAATAAA [XGTACX_site6903],11.2 ± 0.79
13,TTTATTATATTTTTTTGTACATATTGATGTATATAA [XGTACX_site6527],11 ± 0.53
14,AGCAAAATGAAATAAATTGGAAAATATTACTGAACG [CACACA_negctrl_site1433],9.71 ± 0.18
15,ATAAAAAAAAAAAGAAGTACATGTATTAAAATTTAT [XGTACX_site3927],11.5 ± 0.62
16,AACAAAGGATTTATATATACATACATACATACATAA [GTGCAC_negctrl_site469],9.825 ± 0.035
17,TGAATTTACAAAATCATGCACTTAATTACAGAATAA,9.875 ± 0.021
18,AAAAGTCTTCAAATTTGTACATATATATATATATAT [XGTACX_site3404],10.8 ± 0.38
19,GGTACATACAGACACACACACAAAAAAAAAAAAATA [CACACA_site6844],10.3 ± 0.52
20,GAGAAATGGAGACACACACACATATTATATATATAT [CACACA_site1532],10.3 ± 0.24
21,TGTATAAAATTCCATTGTACATATTATTTTACGACA [XGTACX_site7764],11.1 ± 0.61
22,ATGTTAAACAAATCTATACACACGTATATGACAAAA [CACACA_site1783],10.2 ± 0.16

row,Sequence,gcPBM binding intensity (ln)
1,TTAATATTAATTATATGTACATATAATATATATATA [XGTACX_site1757],11.3 ± 0.67
2,ATCTTTTCATATTGCTGTACAAATTATTTTCATTCG [XGTACX_site492],10.9 ± 0.47
3,TTTACAACATCAAAATGTACGCATTATTATTATTAA [XGTACX_site3017],11.4 ± 1.1
4,AAAAAAAAAAAACACACACACACACCCACCCATACA [CACACA_site2859],10.5 ± 0.23
5,ACATATAATATAAATTGTACATATAAATATATTATT [XGTACX_site4268],11.1 ± 0.61
6,TGTGTATAAATATACACACACATATAAATATTTTAA [CACACA_site7005],10.1 ± 0.18
7,TATTTAAAAAATAATACACACATAATATAACAAAAT [CACACA_site3174],10.14 ± 0.049
8,ACGTTATACACAGTACGTACATAACTATCTAAATGT [XGTACX_site5068],11.5 ± 0.91
9,TCATATATTTTATACATACACACATATATATATTTT [CACACA_site3941],9.97 ± 0.15
10,TTCACTTTTTTTTTTTTTTTTTTTTTTTTTTTTATT [GTGCAC_negctrl_site350],9.47 ± 0.18
11,ATGCATAATATACTCTTACACACCATTTCTATATAC [CACACA_site1461],10.1 ± 0.12
12,TATAACATAGGACACACACACATACATACACAAAAA [CACACA_site5062],10.8 ± 0.56
13,TGGAGGTCAGTTCACAGTACCCAGGAAATCTGCGGA [XGTACX_site2556],11 ± 0.86
14,TTTTCCTCTTAAAATATACACACTGATTTAAGAAAA [CACACA_site3301],9.88 ± 0.085
15,ACAAAGTTATAATTCTTGCACTTTAAGGTTCATTTA,10.1 ± 0.33
16,ATAAATATCTAGGGTTCACACATTATATATCTGTAT [CACACA_site5702],10.07 ± 0.028
17,CGTGAATATATGATATGTACTTATAAAAATTTGTGC [XGTACX_site5480],11.3 ± 0.73
18,GGTATACACAAGTATACACACATATATATATATATA [CACACA_site9063],10.3 ± 0.54
19,TCATAAATATGAAAAAGTACAAAGGTAGATTTTGAA [XGTACX_site4535],11.2 ± 0.76
20,TATATATATATTATATGTACGTATGTATGTATATAT [XGTACX_site6451],11.3 ± 0.8
21,AAACGATTAATGTGTACACACATAGTTATAAACCTA [CACACA_site2110],11.6 ± 0.91
22,TTTTTTTTTTTTTTTTTTTTTTTTTTGTTCAGGCCT [GTGCAC_negctrl_site143],9.58 ± 0.34

row,Sequence,gcPBM binding intensity (ln)
1,ACGTAATAAAATAGTTGTACAACTTTTTATAATATA [XGTACX_site4393],11.8 ± 1.1
2,TATTAATTATATTTATGTACATAATCATATTATTAT [XGTACX_site7938],11.2 ± 0.71
3,TTTTTCTTTTTTTCTTTTTTTATAAAACTTAATTGT [CACACA_negctrl_site384],9.885 ± 0.021
4,AAAAAAAAAAAAAAATATATATATATATACATACAT [CACACA_negctrl_site317],9.92 ± 0.31
5,AGTAACAAAAGAAAAAAATATGCAAACATATATATA [XGTACX_negctrl_site468],9.685 ± 0.092
6,TTCATTTTTTGCTTTCAACACACATACAATATATAT [CACACA_site9369],10.2 ± 0.21
7,AGAAATATATATATATATATATATATATATATATAT [TGCATGCA_negctrl_site375],10 ± 0.88
8,AATTTAACCACTAAAAGTACACACATATATACATAT [XGTACX_site8352],11.4 ± 0.92
9,ATATAAATATATATATGTACATAATATATTATGTTT [XGTACX_site2806],11.1 ± 0.61
10,GGACACCTTCAAAACACACATACAAATAAATAGAAA [CACACA_site3305],10.4 ± 0.2
11,AAAGAAAGAAAGAATACACACACACCGATATATATA [CACACA_site9246],9.765 ± 0.021
12,AACATATATTTTGAAACACACACATATATAATATAC [CACACA_site8301],10.04 ± 0.035
13,AGGATAATATACAAAAGTACATAAAACTAAAAAAAC [XGTACX_site605],11.4 ± 0.92
14,ATATATATAAAATATTATATTAAAAAAAATAAAATA [GTGCAC_negctrl_site87],9.665 ± 0.064
15,TAGTTTTTTATATATTGTACTTAGAATATATTATAT [XGTACX_site3662],11.2 ± 0.73
16,AATGTGTATATATATACACACACATATATATATTTT [CACACA_site8596],9.975 ± 0.049
17,TCCTTTTTACTACTAGTGCATTATTTACAAGGTCCG [GTGCAC_site9441],10.3 ± 0.36
18,CATACACATTTCATATGTACATAGATTGAAGGGAAG [XGTACX_site116],11 ± 0.54
19,TATTTTTATTTATAACGTACGAAAAATGTATATAAT [XGTACX_site703],11.1 ± 0.62
20,TAAGCAAAAATAATTACACACAAATTTATAAAAAAT [CACACA_site3377],9.83 ± 0.057
21,ATAAAAATATAATTGAGTACATATGAATAGTCCTAT [XGTACX_site6281],11.4 ± 0.76
22,ATTTTGTTTTTTTTTGCACACCATAAGGAGTGTAGG [CACACA_site1414],10.3 ± 0.31

row,Sequence,gcPBM binding intensity (ln)
1,ACAACACATATTCATCGTACATGTATTAGGAAGACA [XGTACX_site1859],10.9 ± 0.51
2,TATATAAAAATATGTTGTACGCATTTATAAATATAT [XGTACX_site3758],11.6 ± 0.98
3,ATTTTTTTTTTTTTTTTTTTTTTTTTTGAATTCACA [CACACA_negctrl_site982],9.63 ± 0.17
4,TTTTATATATAATTCACACAAAAAAGATACATAAGA [CACACA_site5332],10.3 ± 0.25
5,GAATAATCCAAACACACACACACACCCGAATAAATA [CACACA_site482],10.2 ± 0.33
6,GAAATCTAAATAGAAACACACATATATAAATAAATA [CACACA_site7762],9.65 ± 0.21
7,AATAGTTCTTGAACGTGTACATAAAATATAATTTAC [XGTACX_site11],11.3 ± 0.86
8,TTCTATTTTTTAAAAGTGCATATTATAAATATATAT,10.2 ± 0.26
9,ATATCTAATAAAAATACACACACATATGATTTGTGA [CACACA_site8558],9.77 ± 0.099
10,TATATAGAATTATATGCATGTTCAAAAAAATACAAC [TGCATGCA_site431],10 ± 0.17
11,TAGTATTTATATGTTATATATATAAAATAATACAGT [XGTACX_negctrl_site571],10 ± 0.39
12,AATTAGCATAAATGGGTGCTACACAAAAATGCATGT [GTGCAC_site9640],10.2 ± 0.15
13,ATATAATATATGTTATGTACATAGTTTTTATTGTTC [XGTACX_site7438],11.1 ± 0.79
14,AATATATAATCAGATGAATTTTTTTTTTTTTTTTCA [CACACA_negctrl_site534],9.26 ± 0.2
15,ATATAAATATGAAAAAGTACAAGCCATCAAGAAATC [XGTACX_site8140],11.1 ± 0.69
16,AATTTTTTATTCTTTGCATGTCATCATATATAATAT [TGCATGCA_site549],9.95 ± 0.15
17,ATATAATGTTAGGGTAGAGGAAGTAACTAATATAAA [CACACA_negctrl_site1153],10.05 ± 0.057
18,TTTAAAATTTAATTTTGTACATATACCAATTTTATT [XGTACX_site448],10.9 ± 0.52
19,TATAAATATTATAATTGTACATATTATAAAAATTTT [XGTACX_site2719],11 ± 0.75
20,TACCAAAAAACGGCACGCATATGTATAAGAATATGT [XGTACX_negctrl_site470],9.95 ± 0.24
21,AGCAACTAAAAAGGATACCCCATTAAAAAAAAATTA [XGTACX_negctrl_site489],10.5 ± 0.44
22,TGTGTATAAAAAAAGTGTACACAAAGTAAGACTTTA [XGTACX_site3759],11.7 ± 0.86
